# Assay results as given in the supplement of paper PMC12632987.
# The full ranking holds about 2,300 sequences; the median of “median log2 fold change of GCK-ALFA target abundance (FLAG IP / Myc IP barcode read proportion)” is about 0.095, and the lowest 2% start at about -0.47. The list shows a part of the results.
# B1: LC3A_28_693 (protein)
# chain: SAIDKQIAAARAEADAAIAAGEEATLTITVTADTTQADVDRIMAAIEEIAARMAASAKLNIIIDVEAGVPQEHLDRLADFGDALAARYPNVNIIIALDED
# B2: LC3A_free_39_2279 (protein)
# chain: SSEELEEVLKRLEELASTLSPEGQELLRRLVEIFENDLEALRRLAEALERAKAEGADMLEILRRALEIAERLKAEGKSLEEIGEEVIEEIEDMINLIPLD
# B3: LC3A_28_988 (protein)
# chain: SEDRERAERFLAEAREAAARGEARTLVLEVSKNATQEDIEYIVEVLREAARLLAGVPGASIVVDLESGVKQEHIDKLADAAEEIEEEYPNVTVIIALDED
# B4: LC3A_13_343 (protein)
# chain: MIKIEAETAEELLKKSKEALKANPGSTLEITVTVKDEEEADAVAEALKEIIDEAIKYGSKLNITLKGKRDLVLYTAVEVGSHIAEKIGKADVNVETVEEE
# B5: LC3A_28_1112 (protein)
# chain: SEIDKNLEKALKEAKEAAEKGEPVVVTITVKATDTQEDIDKIIEALYEIAEILKDVKDAAIIIDVDGKLPQEHLDKLADAAEEIEEKYPNITVIIALDEE
# B6: LC3A_28_826 (protein)
# chain: SAVEERIAAFREAAEAVKAAGEPGTLTLTIKSTDTLEEVEKIAEALLEEAEKLKDVPNVSIVIDLDGKISQEKLDILTDTAEKIEKKYPNISVIIALPEE
# B7: LC3A_17_571 (protein)
# chain: SAETEALVKKAVAALKKAEAFAAKIDAAAAKEVAALLKEVEKAAKTKSDLEIAKTIAEAMDKVANILDSLEGKDPDEASHLAMEMEGVAIEAESLALKLE
# B8: LC3A_3_1485 (protein)
# chain: MEELLEEARKVLKERGASEEQIEAVLKDIKEILELGYEETVKEFIELLKEHPDLSPEQIVAAAGTILDKVKEEDLTEEEAVEYTRKIMEDVAEIEELEEE
# B9: LC3A_free_39_2182 (protein)
# chain: SAEELEETERRLLELAAEEGEEARRVAERLLELVEGNLELVRLVLEGAERVRREGGDVLEMLRDLLEAVEEARAAGLSEEELLERLREIIEDHLNLIPLD
# B10: LC3A_free_39_2187 (protein)
# chain: SSSETEKYIEEALELAEEEGEETKELAEEIIEIVGKELDYAKELLELLKELKKEGVDLKEALEEALRLAKELKEQGKSKEEIAKEVLELLRDKINLIPID
# B11: LC3A_28_1050 (protein)
# chain: DATRAALEAALAAARAAAAAGEEALVTLTINKDSTDEDVDLVLETMEEIAEIGRTLPRVTIIVDVDHPNKEEVTTRIAEKGDELEARYPNVTVIIALSEE
# B12: LC3A_132_248 (protein)
# chain: SEEELKEALEELKEILEKIVEALKNGEDPLPLIVELEEKALEIAEKLSLEETEELIDEAKEYAEELFEEELDPNDEEARRTLDIIEMLLDGVLIEKELKS
# B13: LC3A_147_492 (protein)
# chain: AEIDIDILVKDEESAKEVVEKIKEIVEKMRKKGVEVELEVEIEKLDENTYYVRIRIRIRAPTKEEEEAAANEIISEIDELIEKMKDKILAAIISRELLEE
# B14: LC3A_28_1079 (protein)
# chain: SAIAEQVAAALAEARAAAAAGEEAVLTITVDENATEEDIEIVIEGLKELAELAKTGGKVSVIIDLDGDIPEEHIDKLADAAEAVEAANPNLTVIIALPDE
# B15: LC3A_3_1775 (protein)
# chain: SEEIIEEARKLLRELGRSEETIEAAERAITALLEKGYEKAAEKLIELVKENADLDDEDLLAMFEEILEVVETQDLSEEEVIKRIEEEARLARLAHEMDSL
# B16: LC3A_3_1747 (protein)
# chain: MEEKLKEVRELLKEMGKSEETIEGALELVKELLERGFEKAVETFLELLKESEDLSDEILLDMIKDILDYVTNNDINEEEAIKKIKEEFKIAKNENEIIEL
# B17: LC3A_free_39_2247 (protein)
# chain: MEEEMEEADRELEELAETLSPEARKALKELRELLKGNVEALRIVAEGVRELLEEGGDVLAFLKEAVELVKELQAAGKSDEEINEELRELKEDFLNLIPLE
# B18: LC3A_3_1498 (protein)
# chain: REELLERLREVLEELGASEEQIERVLAAAQRILDKGLENTVETLIELFEENRDLSPEQVLTAVEIVADEVEEKNLDEESAIEYAKRIVEDVKEIEEIEEE
# B19: LC3A_28_872 (protein)
# chain: SHIDEQVEAVRKELEEQAKLGEDAVVTVKITSSMSLEEALELMKRVLALAKEYVKETGLKVSIVVDYDGDQETLDAVADLAEEAEKENPKITVIIALPEE
# B20: LC3A_61_2037 (protein)
# chain: MEIDVSKVPDKELAEEIKKAAAKVLKAAAALDPELAEEIAALIQEIVATGLAAEELLKLLKEANKKLEAAKTDEEKLAILEELLEDLKDLANLIPLDEEE
# B21: LC3A_3_1596 (protein)
# chain: AAALVEAALARLRAAGLSPAVLAAARRLLEALAARGYERAIERLTEALLELRDAPEELLVAMLEELLAIVETEDLSEEEVIEEIERLARLARLEAEIEEL
# B22: LC3A_132_311 (protein)
# chain: SEEKYKEIKEELEKKLKEAEKNIKDKEKVEKLLEEIRKLLEEAEEELSPEQVAELYDEVADRLWKLSQKALEAGQEDVALELDAAAIEAASRSLEAEKLI
# B23: LC3A_28_999 (protein)
# chain: MEIEKELEEALKKAKEAAAKGEPVVITIKVPGNANEEDIEKVIEAMYEIAEILKDVKGSAIIIDVDGNLKQEHLDKLMDAAEEIEKKYPNVTVIIALDED
# B24: LC3A_28_1203 (protein)
# chain: SKTKENAEAALKKAKELLAAGEEGVIELKIEGEITEEETEYAIEALEEIAKLAAESGKISIIIDIDGKVPEEHANKIIDKADELEKKYPNVNIIIALEER
# B25: LC3A_28_1003 (protein)
# chain: NPIEKQLEAALKEAKKAAAEGKPVVLTIKVSGTATEEDIEKIIEKLEEIAEILKDIKGAAIIIDIDGKVPQEFIDKLLDKGEEIEEKYPNITVIFALDED
# B26: LC3A_147_502 (protein)
# chain: YLLTVTIDIIVKNATEEVKEHVKKIEEELKKKGFKVNVKIEVEKLDEDTDYINITIEVEAETEEEAQEAADYIIDSWDEFEEKNKDKILGSLISVEIEKI
# B27: LC3A_3_1549 (protein)
# chain: MEELLEETLKRLKEAGASEEVIEAVRKALQALIDRGYEEALKEFAREVEELIGLPDEILLDFAEEVLRAIEEEDLNEEELIERIKEIATIAKNEGEIIEL
# B28: LC3A_28_647 (protein)
# chain: SALEEQLAAALAEARAAAAAGEPVVVTLTVPGDADEEDVEKVLEAMEEIAEILKDVKGSAIVVDIERGVKEEYKDKIIDKAEELEKKYPNVTVIIALEEE
# B29: LC3A_28_1244 (protein)
# chain: SAVDEQIAAAKAAAKEAVAAGEEALITLTVTGDTTEADVDKIIAAMEEIAELAKDLPALDIIIDVSAGVPQEHIDKLADAAEEIEEKYPNVTVIIALEER
# Target: MAP1LC3A, Q9H492
# Test: median log2 fold change of GCK-ALFA target abundance (FLAG IP / Myc IP barcode read proportion) (log2 ratio); each designed protein is fused to an ALFA-tag nanobody in HEK293 cells to bring the named protein to FLAG-tagged glucokinase (GCK); Myc marks an untargeted standard; higher = target protein stabilised (more abundant)
# Conditions: target protein: 3xFLAG-MCP-GCK-ALFA reporter; HEK293 landing pad (RPLP)
# How it was run: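 Sequencing of reverse-transcribed, amplified circular RNA barcodes from anti-FLAG and anti-Myc immunoprecipitates provided the readout for an ALFA-nanobody-fused binder library recombined into HEK293 landing-pad cells. Those cells were induced with 2 μg mL^−1 doxycycline, transfected with a plasmid expressing a FLAG-tagged target and a Myc-tagged standard, and lysed after 48 h. Target abundance is the per-binder median log2 ratio of FLAG to Myc barcode read proportions. Only barcodes at a proportion of ≥10^−7 in both replicates and binders with ≥3 barcodes per replicate were kept, with a 10^−6 pseudocount added before the two replicates were pooled.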
row,Binder,median log2 fold change
1,B1,0.211
2,B2,0.0995
3,B3,0.15
4,B4,0.032
5,B5,0.0117
6,B6,0.348
7,B7,0.185
8,B8,0.278
9,B9,0.164
10,B10,-0.0445
11,B11,-0.231
12,B12,-0.698
13,B13,0.0362
14,B14,-0.288
15,B15,0.15
16,B16,0.155
17,B17,0.0889
18,B18,0.369
19,B19,-0.335
20,B20,-0.037
21,B21,0.0711
22,B22,0.256
23,B23,0.146
24,B24,-0.0441
25,B25,-0.112
26,B26,-0.329
27,B27,0.258
28,B28,-0.381
29,B29,-0.00509
